Results published in PubChem BioAssay AID1346428 (National Center for Advancing Translational Sciences (NCATS), 2018).
About 1,200 (2.5%) of roughly 48,000 compounds were called active. Inconclusive results (about 2%) are left out.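 The calls were made as follows: active = activation of at least 60% and not above a set upper limit (about 1 call in 100 departs from these limits); inconclusive = activation of 40% to 60%, or above that upper limit; inactive = activation under 40%.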 This is one part of the list.

target: Probable G-protein coupled receptor 32 (Homo sapiens) (UniProt O75388); test: qHTS for Agonists of Human Resolvin D1 Receptor DRV1; conditions: CHO-K1 GPR32 beta-arrestin PathHunter luminescence, 90 min; at 76.9 µM; active compounds read high; zero percent set by DMSO-only wells; also: 0% is about no effect
Chain of UniProt O75388 (O75388 whole entry, looked up): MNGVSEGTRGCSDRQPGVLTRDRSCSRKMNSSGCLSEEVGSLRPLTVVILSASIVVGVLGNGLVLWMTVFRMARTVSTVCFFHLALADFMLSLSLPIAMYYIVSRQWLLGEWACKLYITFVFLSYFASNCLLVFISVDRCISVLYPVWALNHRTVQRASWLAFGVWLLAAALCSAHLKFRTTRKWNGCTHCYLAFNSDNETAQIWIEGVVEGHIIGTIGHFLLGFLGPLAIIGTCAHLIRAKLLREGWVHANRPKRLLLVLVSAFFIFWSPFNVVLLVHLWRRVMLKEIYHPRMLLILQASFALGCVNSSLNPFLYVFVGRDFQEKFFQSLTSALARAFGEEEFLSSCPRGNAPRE
Outline: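 Readings come from a cell-based beta-arrestin complementation format: CHO-K1 GPR32 stable cells (2,500/well) treated 90 min with compounds, then beta-Gal substrate added for 1 h before chemiluminescence imaging.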

| Compound | activation |
| --- | --- |
| Cc1ccc(NC(=O)CSc2nc(=O)n(Cc3ccncc3)c3c2CCC3)cc1Cl | inactive: -9.3% |
| Cc1ccc(Cl)cc1N(C)C(=O)c1sc2nc3n(c(=O)c2c1C)CCCC3 | inactive: -16% |
| COc1ccc(Nc2ncc(C(=O)Nc3cccc(OC)c3)c3ccccc23)cc1 | inactive: -20.9% |
| COC(=O)c1cc(NC2(c3ccccc3)C(=O)c3ccccc3C2=O)cc(C(=O)OC)c1 | inactive: -9.9% |
| CC1CCN(S(=O)(=O)c2ccc3[nH]ccc3c2)CC1 | inactive: -16.2% |
| Brc1ccc(-c2cn3cc(Cc4ccccc4)sc3n2)cc1 | inactive: -2.9% |
| Cn1cc(CCCC(=O)NCc2ccc(F)cc2)c2ccccc21 | inactive: -26.7% |
| O=C1NC(NS(=O)(=O)c2ccccc2)(C(F)(F)F)C(=O)N1CCc1ccccc1 (centres undefined) | inactive: 5.97% |
| CCOc1ccc(-c2cc3nc(C4CCN(C(=O)OC(C)(C)C)CC4)c(C(=O)Nc4cccc(Cl)c4C)cn3n2)cc1 | inactive: -14.5% |
| CCOC(=O)c1ccc(NC(=O)c2noc3c2CCCC3)cc1 | inactive: 11.8% |
| Cc1ccc2[nH]c3c(=O)n(CC(=O)N4CCN(c5ccccc5F)CC4)ncc3c2c1 | inactive: -8.63% |
| CCN(c1ccccc1)c1ncnc2c1cnn2-c1ccc(OC)cc1 | inactive: -16.8% |
| O=C(CCC(=O)N1CCOc2ccccc21)NCc1cccs1 | inactive: -5.76% |
| CC(NCCC(c1ccccc1)c1ccccc1)c1ccccc1 (centres undefined) | inactive: 31.3% |
| COc1ccc(Cn2c(CNC(=O)Cc3ccc(OC)c(OC)c3)nc3cccnc32)cc1 | inactive: -12.3% |
| CC(=O)N1CCCc2cc(S(=O)(=O)N3CCCC(C(=O)Nc4ccc(F)cc4F)C3)ccc21 (centres undefined) | inactive: 13.7% |
| Cc1cc(N2CCN(C)CC2)nc2ccc(NC(=O)Nc3ccc(F)cc3)cc12 | inactive: 30.1% |
| O=S(=O)(NCCc1nnc2ccc(SCc3cccc(Cl)c3)nn12)c1ccccc1 | inactive: -22.4% |
| COc1ccc(-c2cc(C(F)(F)F)c(C#N)c(SCC(=O)Nc3cccc(C)c3)n2)cc1 | inactive: -0.509% |
| O=C(NCC(c1ccco1)S(=O)(=O)c1ccc(Cl)cc1)c1ccc(C(F)(F)F)cc1 (centres undefined) | inactive: -2.31% |
| O=C(Cn1c(=O)n(Cc2ccco2)c(=O)c2sc3ccccc3c21)Nc1ccc(F)cc1F | inactive: 17.8% |
| COc1ccc(C(=O)N(Cc2ccco2)Cc2ccccc2F)cc1Cl | inactive: -11.5% |
| Cc1ccc(Cn2c(SCc3ccc(C(=O)O)cc3)nc3cccnc32)cc1 | inactive: -2.1% |
| COc1cccc(CC(=O)Nc2c(C(=O)N3CCN(c4ccccc4)CC3)oc3ccccc23)c1 | inactive: -32.3% |
| CCOc1ccc(CCNC(=O)c2ccc3nc(N4CCC(C)CC4)sc3c2)cc1OCC | inactive: -5.23% |
| CCN(CCCNC(=O)CN1N=C(c2ccccc2)CCC1=O)c1cccc(C)c1 | inactive: -25.9% |
| CSc1ncc(Cl)c(C(=O)Nc2c(C(=O)c3ccc(C)cc3)oc3ccccc23)n1 | inactive: 1.92% |

| Compound | activation |
| --- | --- |
| CCC(C)n1c(=O)c2sccc2n2c(CCCC(=O)Nc3ccc(F)cc3)nnc12 (centres undefined) | inactive: -11.1% |
| COc1ccc(-c2nc(-c3ccccc3)c(-c3ccc(F)cc3)[nH]2)c(OC)c1C | inactive: -7.39% |
| Cc1ccc(Cl)cc1NC(=O)Cn1ncc2c(C)n(Cc3ccccc3F)c(C)c2c1=O | inactive: -13.6% |
| CC(C)(C)NC(=O)c1ccc2nc(CCc3ccccc3)oc2c1 | inactive: -3.13% |
| CC1CN(C(=O)CCC(=O)NCc2ccccc2)c2cc(Cl)ccc2O1 (centres undefined) | inactive: -20.2% |
| Cc1cc(C)cc(N2C(=O)CCSC23C(=O)N(Cc2ccccc2)c2ccccc23)c1 (centres undefined) | inactive: -23.5% |
| CCOc1ccc(CCNC(=O)c2ccc3c(c2)sc2nc(-c4ccc(F)cc4)cn23)cc1OCC | inactive: -12% |
| O=S(=O)(NCCc1csc2nc(-c3ccc(F)cc3)nn12)c1ccc(Oc2ccccc2)cc1 | inactive: 6.73% |
| CC(C)c1ccc(NC(=O)CCn2c(=O)c3cccn3c3ccccc32)cc1 | inactive: -11% |
| COc1cccc(CNCCSc2nnnn2C)c1OCc1ccc(F)cc1 | active: 81.1% |
| Cc1ccc(C(CC(=O)Nc2ccc(F)c(Cl)c2)N2Cc3ccccc3C2=O)cc1 (centres undefined) | inactive: 8.98% |
| COc1cccc(NC(=O)N(Cc2c[nH]c3ccccc23)C2CCCCC2)c1 | inactive: -2.4% |
| CCOC(=O)c1[nH]c(C)c(CCC(=O)Nc2ccc(Br)c(C)c2)c1C | inactive: -15% |
| Cc1ccc(N2CC(NC(=O)C3CC3)CC2=O)cc1C (centres undefined) | inactive: -2.48% |
| CCOC(=O)c1ccn(-c2nc(-c3cccc(OC)c3)cc(C(F)(F)F)n2)n1 | inactive: -20.8% |
| Cc1nc2sccn2c(=O)c1S(=O)(=O)Nc1ccc(N2CCN(C(=O)C(C)C)CC2)cc1 | inactive: -63.8% |
| COc1cc(C(=O)Nc2nonc2-c2ccc(Cl)cc2)cc(OC)c1OC | inactive: -5.15% |
| Cc1ccc(NC(=O)Cn2cnc3sc(C)c(S(=O)(=O)N4CCN(c5ncccn5)CC4)c3c2=O)cc1F | inactive: -12.1% |
| COC(=O)c1ccc(NC(=O)CC2C(=O)N(c3ccccc3)C(=O)N2Cc2ccco2)cc1 (centres undefined) | inactive: -20.9% |
| Cc1cccc(N2CCN(S(=O)(=O)c3c(C(=O)N4CCC(C)CC4)c(C)n(C)c3C)CC2)c1C | inactive: -36.7% |
| Cn1nnnc1SCCCNCc1cc(Cl)ccc1OCc1ccccc1F | inactive: 14.4% |
| CCCCCc1nn2cc(-c3ccccc3)nc2s1 | inactive: -11.5% |
| CCCc1cnc2c(c1SCC(=O)Nc1ccccc1F)c(=O)n(C)c(=O)n2C | inactive: -21.4% |
| Cc1cccc(CNC(=O)C2CCN(S(=O)(=O)c3ccc4c(c3)CCCN4C(=O)C3CCC3)CC2)c1 | inactive: -16% |
| COc1ccc(NC(=O)CSC2=Nc3ccccc3C3=NC(CC(=O)NCc4ccc5c(c4)OCO5)C(=O)N23)cc1 (centres undefined) | inactive: -8.47% |
| CCOc1ccc(C(c2c(O)cc(C)n(Cc3ccco3)c2=O)N2CCN(c3ccccc3)CC2)cc1 (centres undefined) | inactive: -13.5% |
| Cc1ccc(C2C=C(c3ccc(Cl)cc3)Nc3nc(NC(=O)c4ccco4)nn32)cc1 (centres undefined) | active: 108% |
